The results in this text go back to publication PMC12820563, “FoxP3 forms a head-to-head dimer in vivo and stabilizes its multimerization on adjacent microsatellites”.

The other results are listed elsewhere or left out.

The target of the assay is T1, MBP-FoxP1dN (Mus musculus, UniProt P58462 326-579).
T1 sequence: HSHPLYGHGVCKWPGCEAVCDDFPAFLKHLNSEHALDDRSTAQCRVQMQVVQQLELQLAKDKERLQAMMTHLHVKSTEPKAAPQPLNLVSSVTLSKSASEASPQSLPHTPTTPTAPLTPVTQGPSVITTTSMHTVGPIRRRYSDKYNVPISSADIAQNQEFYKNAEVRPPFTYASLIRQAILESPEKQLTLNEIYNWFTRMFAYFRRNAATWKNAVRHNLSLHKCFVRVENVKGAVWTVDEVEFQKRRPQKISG
As to the kind of experiment: PD-seq (MBP pull-down with sequencing); 20 mM Tris-HCl pH 7.5, 100 mM NaCl, 1.5 mM MgCl2, 0.4 uM protein, 0.1 uM dsDNA library, 30 min, room temperature, amylose pull-down; high values mean tight binding. The settings on record: protein: recombinant; tags: His6-MBP; chain copies: 2; dsDNA, one strand shown. Put shortly: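 The N-terminus-lacking fragment of mouse FoxP3 or FoxP1 carried a His6-MBP tag and was expressed in E. coli. At 0.4 µM it was incubated with 0.1 µM Klenow-filled degenerate double-stranded DNA library for 30 min at room temperature in Tris pH 7.5 buffer with NaCl and MgCl2, and complexes were caught on amylose resin, washed three times, released with proteinase K, PCR-barcoded and Illumina-sequenced. Binding is reads-per-million enrichment of pull-down over input with replicates pooled.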
Take “GATGATTGTTCTCCCAGCTGATGAATTCCCTAAATCGAGTAAACAAATTTTCCTAATCTTTCTGTTCAAGCGCCATCTAC”: the binding signal was 1.05 RPM ratio (pull-down/input). With “GATGATTGTTCTCCCAGCTGATGAATTTTCGATATCGAGTAAACAAATTTTCCTAATCTTTCTGTTCAAGCGCCATCTAC”, the binding signal was 0.979 RPM ratio (pull-down/input). For “GATGATTGTTCTCCCAGCTGATGAATTATTCCGTTCGAGTAAACAAATTTTCCTAATCTTTCTGTTCAAGCGCCATCTAC”, the binding signal was 1.07 RPM ratio (pull-down/input). Turning to “GATGATTGTTCTCCCAGCTGATGAATTAAACGATTCGAGTAAACAAATTTTCCTAATCTTTCTGTTCAAGCGCCATCTAC”, the binding signal was 0.876 RPM ratio (pull-down/input). With “GATGATTGTTCTCCCAGCTGATGAATTGCTAGTATCGAGTAAACAAATTTTCCTAATCTTTCTGTTCAAGCGCCATCTAC”, the binding signal was 1.18 RPM ratio (pull-down/input). Consider “GATGATTGTTCTCCCAGCTGATGAATTATTCACTTCGAGTAAACAAATTTTCCTAATCTTTCTGTTCAAGCGCCATCTAC”, for which the binding signal was 1.05 RPM ratio (pull-down/input). For the sequence “GATGATTGTTCTCCCAGCTGATGAATTACCCCGATCGAGTAAACAAATTTTCCTAATCTTTCTGTTCAAGCGCCATCTAC”, the binding signal is 0.986 RPM ratio (pull-down/input). As to “GATGATTGTTCTCCCAGCTGATGAATTGGGGGACTCGAGTAAACAAATTTTCCTAATCTTTCTGTTCAAGCGCCATCTAC”, the binding signal is 0.787 RPM ratio (pull-down/input). For “GATGATTGTTCTCCCAGCTGATGAATTGAGGTTATCGAGTAAACAAATTTTCCTAATCTTTCTGTTCAAGCGCCATCTAC”, the binding signal was 0.966 RPM ratio (pull-down/input). Consider “GATGATTGTTCTCCCAGCTGATGAATTCGGTCTGTCGAGTAAACAAATTTTCCTAATCTTTCTGTTCAAGCGCCATCTAC”, for which the binding signal was 0.775 RPM ratio (pull-down/input). “GATGATTGTTCTCCCAGCTGATGAATTGATAACCTCGAGTAAACAAATTTTCCTAATCTTTCTGTTCAAGCGCCATCTAC”: the binding signal is 1 RPM ratio (pull-down/input). “GATGATTGTTCTCCCAGCTGATGAATTGCGTATATCGAGTAAACAAATTTTCCTAATCTTTCTGTTCAAGCGCCATCTAC”: the binding signal is 1.23 RPM ratio (pull-down/input). As for “GATGATTGTTCTCCCAGCTGATGAATTAACGCCATCGAGTAAACAAATTTTCCTAATCTTTCTGTTCAAGCGCCATCTAC”, the figure is 0.943 RPM ratio (pull-down/input). For “GATGATTGTTCTCCCAGCTGATGAATTAGGCGTGTCGAGTAAACAAATTTTCCTAATCTTTCTGTTCAAGCGCCATCTAC”, the binding signal was 0.926 RPM ratio (pull-down/input). As for “GATGATTGTTCTCCCAGCTGATGAATTGGATGTATCGAGTAAACAAATTTTCCTAATCTTTCTGTTCAAGCGCCATCTAC”, the figure is 1.1 RPM ratio (pull-down/input). On to “GATGATTGTTCTCCCAGCTGATGAATTCTCGCTATCGAGTAAACAAATTTTCCTAATCTTTCTGTTCAAGCGCCATCTAC”, for which the binding signal was 1.05 RPM ratio (pull-down/input). As for “GATGATTGTTCTCCCAGCTGATGAATTACTATTATCGAGTAAACAAATTTTCCTAATCTTTCTGTTCAAGCGCCATCTAC”, the binding signal was 1.87 RPM ratio (pull-down/input). Then “GATGATTGTTCTCCCAGCTGATGAATTATGGCCCTCGAGTAAACAAATTTTCCTAATCTTTCTGTTCAAGCGCCATCTAC”, with 0.876 RPM ratio (pull-down/input). In the case of “GATGATTGTTCTCCCAGCTGATGAATTTGCCATCTCGAGTAAACAAATTTTCCTAATCTTTCTGTTCAAGCGCCATCTAC”, the binding signal was 1.02 RPM ratio (pull-down/input). For “GATGATTGTTCTCCCAGCTGATGAATTTTATATCTCGAGTAAACAAATTTTCCTAATCTTTCTGTTCAAGCGCCATCTAC”, the binding signal is 0.891 RPM ratio (pull-down/input). As to “GATGATTGTTCTCCCAGCTGATGAATTGGCCCCTTCGAGTAAACAAATTTTCCTAATCTTTCTGTTCAAGCGCCATCTAC”, the binding signal was 0.842 RPM ratio (pull-down/input). As for “GATGATTGTTCTCCCAGCTGATGAATTCTTGCTGTCGAGTAAACAAATTTTCCTAATCTTTCTGTTCAAGCGCCATCTAC”, the binding signal was 1.45 RPM ratio (pull-down/input). On to “GATGATTGTTCTCCCAGCTGATGAATTAATGATATCGAGTAAACAAATTTTCCTAATCTTTCTGTTCAAGCGCCATCTAC”, for which the binding signal is 1.11 RPM ratio (pull-down/input). For the sequence “GATGATTGTTCTCCCAGCTGATGAATTTCCGGTTTCGAGTAAACAAATTTTCCTAATCTTTCTGTTCAAGCGCCATCTAC”, the binding signal was 0.821 RPM ratio (pull-down/input).

Consider “GATGATTGTTCTCCCAGCTGATGAATTTAGTGGCTCGAGTAAACAAATTTTCCTAATCTTTCTGTTCAAGCGCCATCTAC”, for which the binding signal is 1 RPM ratio (pull-down/input).

Regarding “GATGATTGTTCTCCCAGCTGATGAATTGACTTTGTCGAGTAAACAAATTTTCCTAATCTTTCTGTTCAAGCGCCATCTAC”, the binding signal was 1.02 RPM ratio (pull-down/input). For “GATGATTGTTCTCCCAGCTGATGAATTTGAACAGTCGAGTAAACAAATTTTCCTAATCTTTCTGTTCAAGCGCCATCTAC”, the binding signal is 0.84 RPM ratio (pull-down/input). Regarding “GATGATTGTTCTCCCAGCTGATGAATTCCAACTGTCGAGTAAACAAATTTTCCTAATCTTTCTGTTCAAGCGCCATCTAC”, the binding signal was 0.853 RPM ratio (pull-down/input). For “GATGATTGTTCTCCCAGCTGATGAATTCCCGCCGTCGAGTAAACAAATTTTCCTAATCTTTCTGTTCAAGCGCCATCTAC”, the binding signal is 0.803 RPM ratio (pull-down/input). Regarding “GATGATTGTTCTCCCAGCTGATGAATTTGGATGCTCGAGTAAACAAATTTTCCTAATCTTTCTGTTCAAGCGCCATCTAC”, the binding signal is 1.3 RPM ratio (pull-down/input).

As for “GATGATTGTTCTCCCAGCTGATGAATTTTAAAAGTCGAGTAAACAAATTTTCCTAATCTTTCTGTTCAAGCGCCATCTAC”, the binding signal was 0.811 RPM ratio (pull-down/input). “GATGATTGTTCTCCCAGCTGATGAATTCGCCCGCTCGAGTAAACAAATTTTCCTAATCTTTCTGTTCAAGCGCCATCTAC”: the binding signal is 0.777 RPM ratio (pull-down/input).

For the sequence “GATGATTGTTCTCCCAGCTGATGAATTATGGGGTTCGAGTAAACAAATTTTCCTAATCTTTCTGTTCAAGCGCCATCTAC”, the binding signal is 0.87 RPM ratio (pull-down/input). Then “GATGATTGTTCTCCCAGCTGATGAATTATTAGGATCGAGTAAACAAATTTTCCTAATCTTTCTGTTCAAGCGCCATCTAC”, with 0.992 RPM ratio (pull-down/input); and “GATGATTGTTCTCCCAGCTGATGAATTTACCCGGTCGAGTAAACAAATTTTCCTAATCTTTCTGTTCAAGCGCCATCTAC”, with 0.927 RPM ratio (pull-down/input). For “GATGATTGTTCTCCCAGCTGATGAATTTTTACGTTCGAGTAAACAAATTTTCCTAATCTTTCTGTTCAAGCGCCATCTAC”, the binding signal is 1.03 RPM ratio (pull-down/input).

Turning to “GATGATTGTTCTCCCAGCTGATGAATTGGGTTAATCGAGTAAACAAATTTTCCTAATCTTTCTGTTCAAGCGCCATCTAC”, the binding signal is 0.898 RPM ratio (pull-down/input).

As for “GATGATTGTTCTCCCAGCTGATGAATTACCGGTATCGAGTAAACAAATTTTCCTAATCTTTCTGTTCAAGCGCCATCTAC”, the binding signal is 1.05 RPM ratio (pull-down/input).

On to “GATGATTGTTCTCCCAGCTGATGAATTCCCGGTGTCGAGTAAACAAATTTTCCTAATCTTTCTGTTCAAGCGCCATCTAC”, for which the binding signal was 0.755 RPM ratio (pull-down/input). In the case of “GATGATTGTTCTCCCAGCTGATGAATTACCGGTTTCGAGTAAACAAATTTTCCTAATCTTTCTGTTCAAGCGCCATCTAC”, the binding signal is 0.982 RPM ratio (pull-down/input).
